# About 2,200 (0.71%) of roughly 310,000 compounds showed an effect of 50% or more. Effects have a minus sign here. The list shows a part of the results.
# Molecular target: human ether-à-go-go-related gene (hERG) potassium channel (human, UniProt Q12809)
# Assay: primary screen, population patch clamp on CHO cells stably expressing hERG
# Chain of human ether-à-go-go-related gene (hERG) potassium channel (Q12809 whole entry, looked up): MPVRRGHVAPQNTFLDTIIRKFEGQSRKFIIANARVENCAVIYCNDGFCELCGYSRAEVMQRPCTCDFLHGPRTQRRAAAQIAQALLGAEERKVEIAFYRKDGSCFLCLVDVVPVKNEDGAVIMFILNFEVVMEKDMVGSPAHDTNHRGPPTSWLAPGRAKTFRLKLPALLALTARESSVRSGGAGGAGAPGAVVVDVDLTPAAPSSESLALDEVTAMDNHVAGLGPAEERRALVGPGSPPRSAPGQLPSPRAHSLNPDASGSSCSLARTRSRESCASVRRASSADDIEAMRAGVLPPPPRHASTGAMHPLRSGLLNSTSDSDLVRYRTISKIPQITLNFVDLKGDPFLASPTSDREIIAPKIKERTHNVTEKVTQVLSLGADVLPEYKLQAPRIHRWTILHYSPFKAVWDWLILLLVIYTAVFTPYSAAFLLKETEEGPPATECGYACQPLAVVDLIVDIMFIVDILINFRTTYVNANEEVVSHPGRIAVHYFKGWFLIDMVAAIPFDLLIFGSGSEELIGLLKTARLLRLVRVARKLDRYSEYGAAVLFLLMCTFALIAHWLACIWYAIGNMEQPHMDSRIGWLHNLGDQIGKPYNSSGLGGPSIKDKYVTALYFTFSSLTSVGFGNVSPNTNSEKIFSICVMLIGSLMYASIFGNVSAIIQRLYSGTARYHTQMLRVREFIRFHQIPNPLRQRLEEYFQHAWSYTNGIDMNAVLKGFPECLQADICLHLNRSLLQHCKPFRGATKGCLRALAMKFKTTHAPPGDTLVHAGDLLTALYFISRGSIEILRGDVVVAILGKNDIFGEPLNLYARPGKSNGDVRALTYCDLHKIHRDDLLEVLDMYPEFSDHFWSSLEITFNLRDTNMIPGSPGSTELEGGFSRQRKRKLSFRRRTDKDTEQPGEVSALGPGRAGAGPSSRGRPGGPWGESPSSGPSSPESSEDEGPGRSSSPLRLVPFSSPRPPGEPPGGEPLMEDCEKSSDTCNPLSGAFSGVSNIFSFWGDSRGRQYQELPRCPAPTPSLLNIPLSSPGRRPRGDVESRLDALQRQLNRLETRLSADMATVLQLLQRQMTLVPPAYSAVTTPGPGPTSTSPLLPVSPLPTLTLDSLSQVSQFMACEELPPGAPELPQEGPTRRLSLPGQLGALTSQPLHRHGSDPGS
row,SMILES,"hERG current change (%, negative = inhibition) at 1uM [%]"
1,COc1ccc(-c2nnc3ccc(SC(C(C)=O)C(C)=O)nn23)cc1OC,7.78
2,O=C1CS/C(=N/N=C\c2ccn[nH]2)N1,14.7
3,CC(=O)OC(C(=O)NCCN1CCOCC1)c1c(F)cccc1F (centres unmarked),5.6
4,O=C(CC1COc2ccccc2O1)NCCc1ccccc1 (centres unmarked),2.54
5,CCOc1ccccc1C(=O)NC(C(=O)N(C)Cc1ccc2c(c1)OCO2)C(C)C (centres unmarked),12
6,CCn1nnc(-c2ccccc2NC(=O)c2cccc(-n3cnnn3)c2)n1,-8.88
7,CCc1nnc(SCC(=O)Nc2ccc(N3CCOCC3)cc2)o1,3.16
8,Cc1cccc(N2CCN(CC(O)COc3ccccc3Cl)CC2)c1 (centres unmarked),-15
9,CC1(C)CC(=O)C=C(Nc2ccc([N+](=O)[O-])cc2)C1,11.1
10,COc1cccc(/C=C2\SC(=S)N(CCCC(=O)N3CCCC3)C2=O)c1,-2.58
11,S=c1[nH]nc(Cc2noc3ccccc23)n1-c1ccc(Cl)cc1,12.8
12,COc1ccccc1-c1coc2c(CN3CCN(C)CC3)c(O)ccc2c1=O,7.36
13,FC(F)(F)c1ccc2c(c1)n(Cc1ccccc1)c1[n+]2CCCCC1.[Cl-],-8.16
14,OCCc1ccc(-c2ccc(Cl)cc2)o1,12.3
15,CCOC(=O)c1c(C)c(C)n(Cc2ccc(OC)c(OC)c2)c1C,7.48
16,CCCN(CC1CC1)C(=O)COC(=O)c1[nH]c(C)c(C(=O)OCC)c1C,9.2
17,COCCN(Cc1cc2cc(C)ccc2nc1Cl)C(=O)Nc1ccccc1C,5.16
18,Cc1ccc(Cn2c(=O)n(Cc3ccco3)c(=O)c3ccccc32)cc1,12.5
19,CCC12OC(=N)C(C#N)(C1C)C(C#N)(C#N)C(c1ccccc1)O2 (centres unmarked),4.09
20,CN(CCNC(=O)c1ccc(CS(=O)(=O)c2c(Cl)cccc2Cl)o1)CCc1ccccc1,-50.4
21,CCOc1ccc(-c2cc(C(=O)O)c3ccccc3n2)cc1,7.66
22,CCN1CCCC1CNC(=O)c1cc2c(OC)cccc2[nH]1 (centres unmarked),-11.5
23,COc1ccccc1CNCC(=O)Nc1ccccc1-n1cccc1.Cl,-1.72

row,SMILES,"hERG current change (%, negative = inhibition) at 1uM [%]"
1,Cc1noc(C)c1COc1cccc(C(=O)Oc2ccc3c(c2)OCO3)c1,4.74
2,COCC(=O)Nc1ccc2c(c1)OCC(=O)N2Cc1ccccc1F,10
3,COC(=O)C1=C(C)OC(N)=C(C#N)C1c1cc2cccc(C)c2nc1Cl (centres unmarked),14.8
4,COC(=O)CC/C(O)=C1/C(=N)CC(C)(C)CC1=O,20.2
5,CCOP1(=O)OCC2OC(n3cnc4c(N)ncnc43)C(O)C2O1 (centres unmarked),10.5
6,COc1ccc(NC(=O)CCSc2ccc(C)cc2)cc1S(=O)(=O)Nc1ccccc1Cl,21.2
7,CN(c1ccccc1)S(=O)(=O)c1ccc(Cl)c(C(=O)NCC(c2ccco2)N2CCCC2)c1 (centres unmarked),-5.2
8,CC(C)OCCCn1c(=S)[nH]c2cc3c(cc2c1=O)OCO3,17.2
9,COc1ccc2nc(NC(=O)C3CCN(C(=O)c4ccco4)CC3)sc2c1,9.83
10,CCOC(=O)c1c(S(=O)(=O)Nc2ccc(C)cn2)c(C)n(C)c1C,16.7
11,O=c1cc(-c2ccccc2)c2ccccc2[nH]1,12.4
12,CCc1ccc(OC(C)C(=O)N(Cc2ccco2)C2CCS(=O)(=O)C2)cc1 (centres unmarked),0.46
13,Cc1cc(OCc2cc(C(=O)N(C)Cc3ccccn3)no2)cc(C)c1Cl,9.07
14,COc1ccc(/C=C/c2nc(C#N)c(NCCN(C)C)o2)cc1OC,8.79
15,O=C(Cc1ccccc1)N[C@@H](Cc1ccccc1)C(=O)O,9.01
16,CN1CCN(c2c(F)cc3c(=O)c(C(=O)O)cn4c3c2SCC4)CC1,3.59
17,CCn1nc(C(=O)Nc2ccc(C)c(C)c2)c(Cl)c1Cl,7.46
18,O=Cc1cn(-c2ccccc2)nc1-c1ccncc1,-6.77
19,CCn1cc(C(=O)N[C@@H](CCSC)C(=O)NCCCN2CCOCC2)c(=O)c2cc3c(cc21)OCO3,39.4
20,C=CCn1c(SCC(N)=O)nnc1-c1cc2c(s1)CCC(CC)C2 (centres unmarked),11.7
21,O=C(N/N=C/c1ccc2nccnc2c1)c1ccc(Br)cc1,13.6
22,CCCC(=O)NCc1cc(-c2nn(C)c(=O)c3ccccc23)ccc1C,11.7
23,CCOC(=O)c1sc2nc(CC(=O)OC)nc(NCc3ccc(Cl)cc3)c2c1C,-0.526

row,SMILES,"hERG current change (%, negative = inhibition) at 1uM [%]"
1,Cc1ccc(OCc2ccc(C(=O)NCC3CCCO3)cc2)cc1C (centres unmarked),0.0765
2,CC(NC(=O)COc1ccc(Oc2ccccc2)cc1)C(=O)O (centres unmarked),-2.72
3,Cc1ccccc1CS(=O)(=O)c1nnc([C@H](CC(C)C)NC(=O)OC(C)(C)C)o1,-5.66
4,O=c1[nH]c(CSc2nnnn2-c2ccccc2)nc2ccccc12,5.15
5,Cc1noc(C)c1COc1ccc(C(=O)N2CC(C)CC(C)C2)cc1 (centres unmarked),11.6
6,Cc1ccccc1Nc1nnc(SCC(=O)NC2CCCc3ccccc32)s1 (centres unmarked),4.33
7,COCC(C)NCC(=O)NC(C)CCc1ccccc1.O=C(O)C(=O)O (centres unmarked),8.23
8,CCOC(=O)c1c(S(=O)(=O)NCC(=O)Nc2ccccc2F)c(C)n(C)c1C,21.5
9,CSc1ccc(CN2CCCC(CNC(=O)c3ccc(F)cc3)C2)cc1 (centres unmarked),-59
10,CCN(CCO)c1nc(N2CCCCC2)c2cnn(C)c2n1,13.6
11,N/C(=N\OC(=O)N1CCOCC1)c1ccccc1,3.49
12,COC(=O)C(CCSC)NC(=O)C12CC3CC(CC(C3)C1)C2 (centres unmarked),11.4
13,CC(=O)Nc1cc(C(=O)N2CCC3(CC2)OCCO3)ccc1Sc1ccc(F)cc1,2.03
14,COc1ccccc1NS(=O)(=O)c1ccc(C)c(NS(=O)(=O)c2cc(C(=O)O)cc(C)c2C)c1,9.86
15,CCOC(=O)Nc1ccc2c(c1)nc(CN1CCCCC1)n2C,1.41
16,Cc1onc(-c2c(F)cccc2Cl)c1C(=O)N1CCCc2ccccc21,0.137
17,COc1ccc(NC(=O)c2cccnc2)cc1,11.2
18,CC(=O)N1CCc2cc(S(=O)(=O)NC(CC(C)C)C(=O)Nc3cc(C(=O)O)ccc3C)ccc21 (centres unmarked),3.73
19,O=C(OCC(=O)N1CCN(C(=O)c2ccco2)CC1)c1cc(-c2ccc(F)cc2)nc2ccccc12,-13.3
20,CCn1c(SCC(=O)Nc2nc(C)cs2)nnc1C(C)NC(=O)c1ccccc1 (centres unmarked),16.2
21,Cc1ccc2c(CN3CCOCC3)cc(=O)oc2c1C,0.103
22,O=C(/C=C/c1c(F)cccc1Cl)NCc1ccc2c(c1)OCO2,6.82
23,Cc1ccc2nc(CCc3ccc(N)cc3)[nH]c2c1.Cl,13.3

row,SMILES,"hERG current change (%, negative = inhibition) at 1uM [%]"
1,COCC(C)NC(=O)CSc1nc(-c2ccccc2)c(-c2ccccc2)o1 (centres unmarked),7.14
2,O=C(Nc1cccnc1)c1ccccc1O,-0.67
3,COC(=O)C1=C(NC(=O)c2ccc(C)cc2)CCS1,-5.73
4,CC(C)c1ccc(N2C(=O)CC(=O)NC2=O)cc1,16.3
5,CCn1c(C)c(C2=CCN(S(=O)(=O)c3ccc(C)cc3)CC2)c2ccccc21,6.28
6,Cc1cc(C(=O)COC(=O)Cn2c(C(F)(F)F)nc3ccccc32)c(C)n1Cc1ccco1,13.1
7,N#Cc1ccccc1NC(=O)CSc1ccc([N+](=O)[O-])cn1,12.2
8,CC(C(=O)OCC(=O)N(C)C1(C#N)CCCCC1)N1C(=O)c2ccccc2C1=O (centres unmarked),1.62
9,CN(CC(CC(=O)O)c1ccccc1)S(=O)(=O)c1ccc(Br)cc1 (centres unmarked),9.66
10,CCC1(c2ccccc2)NC(=O)N(CC(=O)Nc2cc(S(=O)(=O)N3CCCCC3)ccc2N(C)C)C1=O (centres unmarked),-0.0238
11,COc1ccc(C(C)=O)cc1CSC(=N)N.Cl,5.8
12,COc1ccc(CC(=O)Nc2c(C(N)=O)oc3ccccc23)cc1,6.82
13,CC1=CC(C)(C)Nc2ccc(OC(=O)c3cccnc3)cc21,12.8
14,COc1ccc2cc(C(=O)Nc3ccc(O)cc3)sc(=O)c2c1OC,3.32
15,O=C(COc1ncnc2c(Cl)cc(Cl)cc12)NC1CCCCCC1,14.1
16,COc1ccc(CCNS(=O)(=O)c2c(C)nc3scc(C)n3c2=O)cc1OC,11.9
17,O=S(=O)(Nc1ncccn1)c1ccc(Cl)cc1,13.2
18,CC1=CC=CN2C1=NC(=O)CC2(C)C(=O)N(CC(=O)NC1CCCC1)c1cc(C)cc(C)c1 (centres unmarked),8.74
19,Cc1ccnc(NC(=O)COc2ccc3c(c2)CCC3)c1,-4.13
20,C=CCSc1nc(N)c(C(=O)Nc2ccccc2)cc1C#N,10.1
